# The list shows a part of the results.
# Legend:
# Experiment in all cases: glycan array binding signal (z-score within array); higher = stronger binding
# Settings in all cases: glycan notation: IUPAC condensed, linker removed
# [1] = molecular target: Neu5Ac(a2-3)Gal(b1-3)GalNAc
# Method in brief: (§1)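 Arrays were curated from the Consortium for Functional Glycomics database, 3228 in total, and kept only where the protein sequence was available. Binding is expressed as a within-array Z-score. This score was averaged across arrays of the same protein sequence at different concentrations or buffers and across linkers, and negative values can be read as non-binding.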
# [2] = molecular target: Neu5Ac(a2-3)Gal(b1-3)GalNAc(b1-3)Gal(a1-4)Gal(b1-4)Glc
# Method in brief: as §1
# [3] = molecular target: Neu5Ac(a2-3)Gal(b1-3)GalNAc(b1-4)[Neu5Ac(a2-3)]Gal(b1-4)Glc
# Method in brief: as §1
# [4] = molecular target: Neu5Ac(a2-3)Gal(b1-3)GalNAc(b1-4)[Neu5Ac(a2-8)Neu5Ac(a2-3)]Gal(b1-4)Glc
# Method in brief: as §1
# [5] = molecular target: Neu5Ac(a2-3)Gal(b1-3)GalNAc6S
# Method in brief: as §1
# [6] = molecular target: Neu5Ac(a2-3)Gal(b1-3)GlcNAc
# Method in brief: as §1
# [7] = molecular target: Neu5Ac(a2-3)Gal(b1-3)GlcNAc(b1-2)Man
# Method in brief: as §1
# [8] = molecular target: Neu5Ac(a2-3)Gal(b1-3)GlcNAc(b1-2)Man(a1-3)[GlcNAc(b1-4)][Neu5Ac(a2-3)Gal(b1-3)GlcNAc(b1-2)Man(a1-6)]Man(b1-4)GlcNAc(b1-4)GlcNAc
# Method in brief: as §1
# [9] = molecular target: Neu5Ac(a2-3)Gal(b1-3)GlcNAc(b1-2)Man(a1-3)[Neu5Ac(a2-3)Gal(b1-3)GlcNAc(b1-2)Man(a1-6)]Man(b1-4)GlcNAc(b1-4)GlcNAc
# Method in brief: as §1
# [10] = molecular target: Neu5Ac(a2-3)Gal(b1-3)GlcNAc(b1-3)Gal(b1-3)GlcNAc
# Method in brief: as §1
# [11] = molecular target: Neu5Ac(a2-3)Gal(b1-3)GlcNAc(b1-3)Gal(b1-4)GlcNAc
# Method in brief: as §1
# [12] = molecular target: Neu5Ac(a2-3)Gal(b1-3)GlcNAc(b1-3)GalNAc
# Method in brief: as §1
# [13] = molecular target: Neu5Ac(a2-3)Gal(b1-3)GlcNAc(b1-4)Gal(b1-4)Glc
# Method in brief: as §1
# [14] = molecular target: Neu5Ac(a2-3)Gal(b1-3)GlcNAc(b1-6)GalNAc
# Method in brief: as §1
# [15] = molecular target: Neu5Ac(a2-3)Gal(b1-3)GlcNAc6S
# Method in brief: as §1
# [16] = molecular target: Neu5Ac(a2-3)Gal(b1-3)[Fuc(a1-4)]GlcNAc
# Method in brief: as §1
# [17] = molecular target: Neu5Ac(a2-3)Gal(b1-3)[Fuc(a1-4)]GlcNAc(b1-3)Gal(b1-3)[Fuc(a1-4)]GlcNAc
# Method in brief: as §1
# [18] = molecular target: Neu5Ac(a2-3)Gal(b1-3)[Fuc(a1-4)]GlcNAc(b1-3)Gal(b1-4)[Fuc(a1-3)]GlcNAc
# Method in brief: as §1
# [19] = molecular target: Neu5Ac(a2-3)Gal(b1-3)[GlcNAc(b1-6)]GalNAc
# Method in brief: as §1
# [20] = molecular target: Neu5Ac(a2-3)Gal(b1-3)[Neu5Ac(a2-6)]GalNAc
# Method in brief: as §1
# [21] = molecular target: Neu5Ac(a2-3)Gal(b1-3)[Neu5Ac(a2-6)]GlcNAc(b1-3)[Fuc(a1-3)[Gal(b1-4)]GlcNAc(b1-6)]Gal(b1-4)Glc
# Method in brief: as §1
# [22] = molecular target: Neu5Ac(a2-3)Gal(b1-3)]Neu5Ac(a2-3)Gal(b1-4)]GlcNAc
# Method in brief: as §1
# [23] = molecular target: Neu5Ac(a2-3)Gal(b1-4)Glc
# Method in brief: as §1
# [24] = molecular target: Neu5Ac(a2-3)Gal(b1-4)GlcNAc
# Method in brief: as §1
# [25] = molecular target: Neu5Ac(a2-3)Gal(b1-4)GlcNAc(b1-2)Man
# Method in brief: as §1
# [26] = molecular target: Neu5Ac(a2-3)Gal(b1-4)GlcNAc(b1-2)Man(a1-3)[GlcNAc(b1-4)][Neu5Ac(a2-3)Gal(b1-4)GlcNAc(b1-2)Man(a1-6)]Man(b1-4)GlcNAc(b1-4)GlcNAc
# Method in brief: as §1
# [27] = molecular target: Neu5Ac(a2-3)Gal(b1-4)GlcNAc(b1-2)Man(a1-3)[Neu5Ac(a2-3)Gal(b1-4)GlcNAc(b1-2)Man(a1-6)]Man(b1-4)GlcNAc(b1-4)GlcNAc
# Method in brief: as §1
# [28] = molecular target: Neu5Ac(a2-3)Gal(b1-4)GlcNAc(b1-2)Man(a1-3)[Neu5Ac(a2-3)Gal(b1-4)GlcNAc(b1-2)Man(a1-6)]Man(b1-4)GlcNAc(b1-4)[Fuc(a1-6)]GlcNAc
# Method in brief: as §1
# [29] = molecular target: Neu5Ac(a2-3)Gal(b1-4)GlcNAc(b1-2)Man(a1-3)[Neu5Ac(a2-6)Gal(b1-4)GlcNAc(b1-2)Man(a1-6)]Man(b1-4)GlcNAc(b1-4)GlcNAc
# Method in brief: as §1
# [30] = molecular target: Neu5Ac(a2-3)Gal(b1-4)GlcNAc(b1-2)[Neu5Ac(a2-3)Gal(b1-4)GlcNAc(b1-4)]Man(a1-3)[GlcNAc(b1-4)][Neu5Ac(a2-3)Gal(b1-4)GlcNAc(b1-2)[Neu5Ac(a2-3)Gal(b1-4)GlcNAc(b1-6)]Man(a1-6)]Man(b1-4)GlcNAc(b1-4)GlcNAc
# Method in brief: as §1
# [31] = molecular target: Neu5Ac(a2-3)Gal(b1-4)GlcNAc(b1-2)[Neu5Ac(a2-3)Gal(b1-4)GlcNAc(b1-4)]Man(a1-3)[GlcNAc(b1-4)][Neu5Ac(a2-3)Gal(b1-4)GlcNAc(b1-4)Man(a1-6)]Man(b1-4)GlcNAc(b1-4)GlcNAc
# Method in brief: as §1
# [32] = molecular target: Neu5Ac(a2-3)Gal(b1-4)GlcNAc(b1-2)[Neu5Ac(a2-3)Gal(b1-4)GlcNAc(b1-6)]Man(a1-6)[Neu5Ac(a2-3)Gal(b1-4)GlcNAc(b1-2)Man(a1-3)]Man(b1-4)GlcNAc(b1-4)GlcNAc
# Method in brief: as §1
# [33] = molecular target: Neu5Ac(a2-3)Gal(b1-4)GlcNAc(b1-2)[Neu5Ac(a2-3)Gal(b1-4)GlcNAc(b1-6)]Man(a1-6)[Neu5Ac(a2-3)Gal(b1-4)GlcNAc(b1-2)Man(a1-3)][GlcNAc(b1-4)]Man(b1-4)GlcNAc(b1-4)GlcNAc
# Method in brief: as §1
# [34] = molecular target: Neu5Ac(a2-3)Gal(b1-4)GlcNAc(b1-3)Gal
# Method in brief: as §1
# [35] = molecular target: Neu5Ac(a2-3)Gal(b1-4)GlcNAc(b1-3)Gal(b1-3)GlcNAc
# Method in brief: as §1
# [36] = molecular target: Neu5Ac(a2-3)Gal(b1-4)GlcNAc(b1-3)Gal(b1-4)GlcNAc
# Method in brief: as §1
# [37] = molecular target: Neu5Ac(a2-3)Gal(b1-4)GlcNAc(b1-3)Gal(b1-4)GlcNAc(b1-2)Man(a1-3)[Neu5Ac(a2-3)Gal(b1-4)GlcNAc(b1-3)Gal(b1-4)GlcNAc(b1-2)Man(a1-6)]Man(b1-4)GlcNAc(b1-4)GlcNAc
# Method in brief: as §1
# [38] = molecular target: Neu5Ac(a2-3)Gal(b1-4)GlcNAc(b1-3)Gal(b1-4)GlcNAc(b1-3)Gal(b1-4)GlcNAc
# Method in brief: as §1
# [39] = molecular target: Neu5Ac(a2-3)Gal(b1-4)GlcNAc(b1-3)Gal(b1-4)GlcNAc(b1-3)Gal(b1-4)GlcNAc(b1-2)Man(a1-3)[Neu5Ac(a2-3)Gal(b1-4)GlcNAc(b1-3)Gal(b1-4)GlcNAc(b1-3)Gal(b1-4)GlcNAc(b1-2)Man(a1-6)]GalNAc
# Method in brief: as §1
# [40] = molecular target: Neu5Ac(a2-3)Gal(b1-4)GlcNAc(b1-3)Gal(b1-4)GlcNAc(b1-3)GalNAc
# Method in brief: as §1
# [41] = molecular target: Neu5Ac(a2-3)Gal(b1-4)GlcNAc(b1-3)Gal(b1-4)GlcNAc(b1-3)[Neu5Ac(a2-3)Gal(b1-4)GlcNAc(b1-3)Gal(b1-4)GlcNAc(b1-6)]GalNAc
# Method in brief: as §1
# [42] = molecular target: Neu5Ac(a2-3)Gal(b1-4)GlcNAc(b1-3)Gal(b1-4)GlcNAc(b1-6)[Gal(b1-3)]GalNAc
# Method in brief: as §1
# [43] = molecular target: Neu5Ac(a2-3)Gal(b1-4)GlcNAc(b1-3)Gal(b1-4)[Fuc(a1-3)]GlcNAc
# Method in brief: as §1
# [44] = molecular target: Neu5Ac(a2-3)Gal(b1-4)GlcNAc(b1-3)GalNAc
# Method in brief: as §1
# [45] = molecular target: Neu5Ac(a2-3)Gal(b1-4)GlcNAc(b1-3)[Neu5Ac(a2-3)Gal(b1-4)GlcNAc(b1-6)]GalNAc
# Method in brief: as §1
binder,measurement,setting,value
PX14379A-bvu-539-28-539 (Bacteroides vulgatus) (protein) EPYSEIIEEDYVPTEADEIALLATTYSQLRFVMDWYGLFDLQEESGDVIVTPTRPNGWDDGGTYKQMHKHTWDNQQGQPQSIWDYCYKGIANANKILKRADEGFFTEESKPKVVAEVKGVRALWYSILCDTHGNIPIQTSFSEEVPVQSTRKQVFDFIINELKEVMPNLPTEVNKSTYGRLTQWGAKCLMARMYLNAGVYTGTPMWNECLEQCNDIINSGLFSLETNYTDIFKTENSGCVETIFAIPYDEVYNEGDNNGPVFGAHMKFLSSNSRKVFNMQTTPWGGSAANPQFINSYDPDDMRLKYTWLQGDQYSPDGVLITTFPNKLPSIYKTDTDDGYRVGKYEIKVGAKSLLSNDFPYFRYTEVLLMKAECLLRLGQNETEAAHIVSQIRERAFRESAHPEKATVDAAWLKGDTHINYGTLDEKGQIDDAGNTEVVELGGLYDEWGWEFAAEARRRTDMIRFGTYQKKSWFNHTPTANDLNGNSILFPIHLDHLNTNPNLQQNPGYAGK,glycan array binding signal (z-score),[1],-0.25
same,glycan array binding signal (z-score),[2],-0.366
same,glycan array binding signal (z-score),[3],-0.068
same,glycan array binding signal (z-score),[4],-0.367
same,glycan array binding signal (z-score),[5],-0.441
same,glycan array binding signal (z-score),[6],-0.439
same,glycan array binding signal (z-score),[7],-0.425
same,glycan array binding signal (z-score),[8],-0.214
same,glycan array binding signal (z-score),[9],-0.248
same,glycan array binding signal (z-score),[10],-0.491
same,glycan array binding signal (z-score),[11],-0.23
same,glycan array binding signal (z-score),[12],-0.303
same,glycan array binding signal (z-score),[13],-0.389
same,glycan array binding signal (z-score),[14],-0.342
same,glycan array binding signal (z-score),[15],-0.108
same,glycan array binding signal (z-score),[16],-0.179
same,glycan array binding signal (z-score),[17],0.035
same,glycan array binding signal (z-score),[18],-0.182
same,glycan array binding signal (z-score),[19],-0.396
same,glycan array binding signal (z-score),[20],-0.423
same,glycan array binding signal (z-score),[21],-0.134
same,glycan array binding signal (z-score),[22],-0.124
same,glycan array binding signal (z-score),[23],-0.077
same,glycan array binding signal (z-score),[24],-0.355
same,glycan array binding signal (z-score),[25],-0.388
same,glycan array binding signal (z-score),[26],0.102
same,glycan array binding signal (z-score),[27],0.069
same,glycan array binding signal (z-score),[28],-0.571
same,glycan array binding signal (z-score),[29],-0.456
same,glycan array binding signal (z-score),[30],0.054
same,glycan array binding signal (z-score),[31],-0.249
same,glycan array binding signal (z-score),[32],0.084
same,glycan array binding signal (z-score),[33],-0.378
same,glycan array binding signal (z-score),[34],-0.232
same,glycan array binding signal (z-score),[35],-0.338
same,glycan array binding signal (z-score),[36],-0.185
same,glycan array binding signal (z-score),[37],0.342
same,glycan array binding signal (z-score),[38],-0.409
same,glycan array binding signal (z-score),[39],0.579
same,glycan array binding signal (z-score),[40],-0.138
same,glycan array binding signal (z-score),[41],-0.132
same,glycan array binding signal (z-score),[42],0.714
same,glycan array binding signal (z-score),[43],-0.423
same,glycan array binding signal (z-score),[44],-0.261
same,glycan array binding signal (z-score),[45],-0.185
